# Measurements published in PubChem BioAssay AID485313 (National Center for Advancing Translational Sciences (NCATS), 2010).
# In all, about 320,000 compounds went through this assay and about 7,600 (2.4%) were called active. Inconclusive results, whose numbers are uncertain, are shown with a selection of clear calls. The call rests on the fitted dose curve; in most records, active means well fitted activation curve with a large enough effect; inconclusive means small, poorly fitted or top-dose-only effect; inactive means no such curve, though single readings can be large or run the other way. Potencies of inconclusive entries are left out as doubtful fits.
# Assay: qHTS Assay for NPC1 Promoter Activators; further: nearly all actives have a fitted effect of over 60% in size;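 on activation: reporter is driven by a mutant NPC1 promoter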
# Conditions: Huh7 NPC1 promoter luciferase reporter, 24 h; series mostly up to 9.22 µM
# Procedure, shortened: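 Cells: Huh7 expressing luciferase under the NPC1 promoter, 1500/well. Seeded 2 h, compound added, incubated 24 h at 37 °C. Luciferase reagent, 10 min ambient, then luminescence.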
# Potency means the concentration at half of the fitted maximal effect; tags describe the fitted curve by direction and shape.
row,Compound,Potency
1,COc1cccc(C(=O)Nc2ccc3c(c2)OCO3)c1OC,active: 1.41 µM
2,Oc1c(N=Nc2ccccc2)sc2ccccc12,"inconclusive [activator, single point]"
3,O=C(O)c1cccc(NC(=S)N/N=C/c2ccccc2OCc2ccc(Br)cc2)c1,inactive
4,O=C(Nc1ccc(C(=O)N2CCCC2)cc1)c1ccccc1F,"inconclusive [activator, partial curve]"
5,CCOC(=O)N1CCC(N(CCN(C)C)C(=S)Nc2ccccc2Cl)CC1,inactive
6,CCCc1nn(C)c(C(=O)Nc2cccc(C)c2)c1Cl,"inconclusive [activator, partial curve]"
7,O=C(CN1CCCCC1)Nc1ccc(NC(=O)c2ccccc2Cl)cc1Cl,inactive
8,CN(C)c1cccc(C(=O)NC2CCCCCC2)c1,"inconclusive [activator, partial curve]"
9,CCOc1ccc(N(CC(=O)NCc2ccc(OC)cc2)S(C)(=O)=O)cc1,"inconclusive [activator, single point]"
10,CC(=O)c1ccc(NC(=O)CCc2c(C)nn(-c3ccc(N4CCOCC4)nn3)c2C)cc1,"inconclusive [activator, single point]"
11,COc1ccccc1-n1cnnc1SCC(=O)Nc1cccc(S(N)(=O)=O)c1,inactive
12,COC(=O)Cc1nc(NC(=O)c2cccs2)sc1C,"inconclusive [activator, single point]"
13,CC(C)C(=O)OCC(=O)Nc1ccc(N=Nc2ccccc2)cc1,active: 2.51 µM
14,Cn1c(CCNC(=O)c2ccco2)nc2cc(NC(=O)c3ccccc3)ccc21,"inconclusive [activator, partial curve]"
15,CCOC(CNC(=O)c1ccc2nc(N3CCC(C)CC3)sc2c1)OCC,"inconclusive [activator, partial curve]"
16,Cc1cc(C(=O)COC(=O)c2ccco2)c(C)n1Cc1ccco1,"inconclusive [activator, single point]"
17,COc1cccc(NC(=O)CN(C)C(=O)C2CCN(C(=O)c3ccccc3C)CC2)c1,inactive
18,O=C(COc1ccccc1)Nc1ccccc1Cl,"inconclusive [activator, single point]"
19,COC(=O)C1CCCCN1C(=O)c1ccc2oc(C(C)C)nc2c1 (centres undefined),inactive
20,CC1CCN(C(=O)CSc2nc(=O)n3ccccc3n2)CC1,inactive
21,Cc1noc(C(=O)Nc2cccc(Cl)c2)c1Cl,inactive
22,O=C(/C=C/c1ccc(-c2ccccc2)o1)c1ccccc1,"inconclusive [activator, single point]"
23,CCCCn1c(Nc2ccc(OC)cc2)nc2ccccc21,"inconclusive [activator, single point]"
24,CCOC(=O)c1c(NC(=O)CSc2nc3cccnc3n2C)sc(C(C)=O)c1C,inactive
25,O=c1c(/C=N/Nc2ccccc2)c(Sc2nnnn2-c2ccccc2)nc2ccccn12,"inconclusive [activator, single point]"
26,CCn1ccc(C(=O)Nc2ccc3c(c2)CCC3)n1,active: 1 µM
27,Cc1cccc(-n2ncc3c(Nc4ccc(F)cc4)ncnc32)c1,"inconclusive [activator, partial curve]"

row,Compound,Potency
1,Cc1ccc(-c2cnn(-c3cccc([N+](=O)[O-])c3)c2N)cc1,active: 2.24 µM
2,COc1ccnc(Oc2ccccc2)c1C(N)=O,inactive
3,O=C(NCCSc1ccccc1)c1ccc(CN2CCOCC2)cc1,active: 2 µM
4,Cc1ccc(CC(=O)c2ccc(Cl)cc2)cc1,"inconclusive [activator, single point]"
5,CC(C)(C)c1ccc(OCc2ccc(C(=O)N/N=C/c3ccc([N+](=O)[O-])cc3)o2)cc1,active: 1.58 µM
6,COc1ccc(/C=N/NC(=S)Nc2ccccc2)cc1,"inconclusive [activator, single point]"
7,COc1ccccc1Nc1nc2ccccc2[nH]1,"inconclusive [activator, partial curve]"
8,Clc1ccc(-c2nc(Cc3ccccc3)no2)cc1,"inconclusive [activator, single point]"
9,CCNc1nc(-c2cc3ccccc3o2)cs1,active: 2.82 µM
10,CCOC(=O)C1=C(C)N=C(SC)N(C)C1c1ccccc1 (centres undefined),inactive
11,CC1CCCN(C(=O)CCc2nnc(-c3ccc4c(c3)OCO4)o2)C1 (centres undefined),"inconclusive [activator, partial curve]"
12,Cc1cc(C)n2c(Br)c(CSc3nc4ccccc4o3)nc2n1,"inconclusive [activator, single point]"
13,O=C(O)c1ccccc1SCc1cn2cc(Cl)ccc2n1,"inconclusive [activator, single point]"
14,NC(=O)COc1ccc2cc(-c3ccccc3)c(=O)oc2c1,inactive
15,COc1ccc2oc(C(=O)NNC(=O)c3ccc(F)cc3)c(C)c2c1,inactive
16,N#Cc1ccsc1NC(=O)COc1ccc(-c2nnco2)cc1,"inconclusive [activator, partial curve]"
17,CSc1ccccc1NC(=O)c1cc(CC(C)C)on1,"inconclusive [activator, partial curve]"
18,O=C(CCn1c(=S)oc2ccccc21)NC1CCCCCC1,"inconclusive [activator, single point]"
19,O=C(Nc1ccc2c(c1)OCCO2)c1cc2ccccc2o1,active: 0.891 µM
20,CC1N(C(=O)N2CCOCC2)CCN1S(=O)(=O)c1ccc(Cl)cc1 (centres undefined),inactive
21,Cc1cccc(Nc2nc(N)c([N+](=O)[O-])c(N3CCCC(C)C3)n2)c1 (centres undefined),inactive
22,CCc1nc2ccc(C(=O)O)cc2nc1CC,"inconclusive [activator, partial curve]"
23,COCCSc1nnc(NC(=O)C2CCN(C(=O)c3ccco3)CC2)s1,inactive
24,O=C(O)c1ccc(N/N=C/c2cn(-c3ccccc3)nc2-c2cccs2)cc1,active: 1.26 µM
25,C=CCSc1n[nH]c(-c2ccc(OCCCC)cc2)n1,"inconclusive [activator, partial curve]"
26,Cc1cc(C=C(C#N)C#N)c(C)n1-c1ccccc1,"inconclusive [activator, partial curve]"
27,CCc1ccc(C(=O)NCC2COc3ccccc3O2)o1 (centres undefined),"inconclusive [activator, partial curve]"

row,Compound,Potency
1,O=S(=O)(Nc1cc(Cl)ccc1N1CCOCC1)c1ccccc1Cl,inactive
2,COCCCNC(=O)c1ccc2c3c(onc13)-c1ccccc1C2=O,active: 3.16 µM
3,COC(=O)COC(=O)c1ccccc1NC(=O)c1ccccc1,inactive
4,O=c1[nH]c(/C=C/c2ccccc2F)nc2ccccc12,"inconclusive [activator, full curve, poor fit]"
5,Cc1ccc(C(=O)Nc2cccc(-c3ccc(N4CCOCC4)nn3)c2)cc1[N+](=O)[O-],"inconclusive [activator, partial curve]"
6,CCOc1ccc(NC(=NCc2ccc3c(c2)OCO3)SC2CC(=O)N(c3ccc(OCC)cc3)C2=O)cc1 (centres undefined),"inconclusive [activator, single point]"
7,CCCCCn1nc(C)c(/C=N/NC(=O)c2ccoc2C)c1C,"inconclusive [activator, single point]"
8,Cc1nc2cc(NC(=O)Nc3nccs3)ccc2n1C,active: 1.41 µM
9,Cc1cccc(C(=O)N2CCCC(c3nc(-c4ccc(C)o4)no3)C2)c1 (centres undefined),"inconclusive [activator, partial curve]"
10,Cc1cc(-c2ccc(Br)cc2)n[nH]1,"inconclusive [activator, single point]"
11,CN(C(=S)NC(=O)Cc1ccccc1)c1ccccc1,inactive
12,CN(C)c1cccc(C(=O)Nc2cccc(F)c2)c1,active: 2.24 µM
13,c1cncc(-c2nc(-c3ccco3)cs2)c1,inactive
14,Cc1ccc2nc(N(CCN3CCOCC3)C(=O)CCS(=O)(=O)c3ccccc3)sc2c1,"inconclusive [activator, partial curve]"
15,Cc1cccc2cc(CN(CC3CCCO3)C(=O)NC3CCCCC3)c(=O)[nH]c12 (centres undefined),"inconclusive [activator, single point]"
16,COC(=O)c1cccc(COC(=O)c2cccnc2SC)c1,"inconclusive [activator, partial curve]"
17,C/C(N)=C(/C#N)C(=O)CSc1nnc(Nc2ccccc2C)s1,"inconclusive [activator, single point]"
18,CC(=O)N1N=C(c2ccc(C)cc2)OC1c1ccc(C)cc1 (centres undefined),"inconclusive [activator, single point]"
19,O=C(Nc1nnc(-c2ccccc2F)s1)c1ccccc1F,active: 1.58 µM
20,Clc1ccc(-c2nnc(-c3cccnc3)o2)cc1,"inconclusive [activator, single point]"
21,Cc1ccc(C(=O)N[C@H](C(=O)OCC(=O)NC2CCS(=O)(=O)C2)C(C)C)cc1 (some centres undefined),inactive
22,O=C(Nc1ccc(Cc2ccncc2)cc1)c1ccco1,"inconclusive [activator, single point]"
23,O=C(NCCC1CCCC1)c1cccs1,"inconclusive [activator, single point]"
24,Cc1ccc(NC(=O)CCSc2nnc(Cc3ccccc3)o2)cc1,inactive
25,Cc1nn(-c2ccc(C(=O)OC(C)C)cc2)c(C)c1[N+](=O)[O-],"inconclusive [activator, single point]"
